Assay results: the supplement of paper PMC10126150
Sequences with one replicate were seen in a single cluster, so their values are uncertain.

The sequences below were run on ATP (assay: switch fluorescence ratio, 500 uM ATP over buffer (Cy3 cluster intensity, sum of 5 cycles each) (fold (ratio)); higher = stronger signal-on switching upon ATP binding; sequences stand for … in TCGTCGGCAGCGTCAGATGTGTATAAGAGACAGTTTTTTTTTTTTTTTTTTTTTTTTT…TC). Conditions: aptamer strand: ATP DNA aptamer (quencher-CACCTGGGGGAGTATTGCGGAGGAAGG + anchor), 100 nM annealed; ATP concentration: 500 uM; one replicate.
Method in brief: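 Between each of five buffer/ATP cycles, the flow-cell was stripped with NaOH and re-annealed. Each cycle imaged Cy3-labelled switching-strand clusters, annealed to 100 nM quencher-labelled ATP aptamer on a modified Illumina MiSeq flow-cell, first in selection buffer and then after 15 min with 500 uM ATP at 22 °C. The fluorescence ratio is summed target-cycle over summed buffer-cycle Cy3 intensity per cluster, averaged per switch-domain sequence, with clusters outside 100-1000 RFU excluded.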
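Also: ATP exposure 15 min at 22 °C before imaging.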

Row | Sequence | switch fluorescence ratio
1 | GACTTCGGGT | 0.929
2 | GACTTGTGCT | 0.933
3 | GACTTTATAG | 0.984
4 | GAGAAAATT | 1.06
5 | GAGAAACATC | 0.942
6 | GAGAAACTTT | 0.998
7 | GAGAAAGTAC | 1.29
8 | GAGAACACGC | 0.991
9 | GAGAACGGAG | 1.04
10 | GAGAAGGTAA | 0.982
11 | GAGAATGGGA | 0.985
12 | GAGAATGGGC | 1.01
13 | GAGACACAAG | 1.13
14 | GAGACATTTG | 0.918
15 | GAGACCAGGT | 1.56
16 | GAGACCCATA | 1.55
17 | GAGACCTGAT | 1
18 | GAGACGCATT | 1.63
19 | GAGACTGAGC | 0.955
20 | GAGAGATATG | 1.01
21 | GAGAGGAAGG | 1.02
22 | GAGAGGAATC | 0.925
23 | GAGAGGGTGG | 1
24 | GAGAGTAACA | 1.01
25 | GAGAGTAAGG | 0.979
26 | GAGAGTGATG | 0.985

Row | Sequence | switch fluorescence ratio
27 | GAGAGTTTTT | 0.954
28 | GAGATAACGG | 0.996
29 | GAGATAGTGA | 0.991
30 | GAGATCACAA | 1.03
31 | GAGATCGATA | 1.1
32 | GAGATGCATT | 0.951
33 | GAGATGTTAA | 0.962
34 | GAGATTACCC | 1.03
35 | GAGCAAGGCC | 1
36 | GAGCAGGACC | 1.1
37 | GAGCAGGCAC | 1.1
38 | GAGCATAAGG | 1.06
39 | GAGCATCAAA | 1.01
40 | GAGCATGT | 1.03
41 | GAGCATGTGA | 1.02
42 | GAGCATTTGA | 1.04
43 | GAGCCAACGG | 0.94
44 | GAGCCAGCCA | 1.01
45 | GAGCCGGTGC | 0.983
46 | GAGCCTGTGT | 1.01
47 | GAGCGAAACG | 1.03
48 | GAGCGCCA | 0.994
49 | GAGCGTCAGG | 1.02
50 | GAGCGTGGCC | 1.02
51 | GAGCGTTGGG | 0.988
52 | GAGCGTTTGT | 0.985

Row | Sequence | switch fluorescence ratio
53 | GAGCTAGTTG | 0.991
54 | GAGCTCAATT | 0.983
55 | GAGCTCTGAG | 1.05
56 | GAGCTTAACA | 0.978
57 | GAGCTTGAGG | 0.978
58 | GAGGAAGTGT | 0.958
59 | GAGGACATTG | 1.02
60 | GAGGAGCAGC | 0.972
61 | GAGGAGCTT | 1.08
62 | GAGGATAGTT | 0.993
63 | GAGGATGCGT | 1.01
64 | GAGGCATGTG | 1.02
65 | GAGGCATTTC | 1.95
66 | GAGGCCACGT | 0.986
67 | GAGGCCACTA | 1.03
68 | GAGGCGATGG | 2.02
69 | GAGGCGCCCG | 0.951
70 | GAGGCGCGGT | 0.982
71 | GAGGCGGTAA | 1.36
72 | GAGGCTCAGG | 0.992
73 | GAGGGATCGG | 0.983
74 | GAGGGATTG | 0.943
75 | GAGGGCCCCT | 1.35
76 | GAGGGCCTCG | 1.01
77 | GAGGGCTGCG | 1.02
78 | GAGGGCTGTG | 1.03

Row | Sequence | switch fluorescence ratio
79 | GAGGGGCGG | 1
80 | GAGGGGCGGC | 1.03
81 | GAGGGGCTGC | 1.03
82 | GAGGGGGA | 0.975
83 | GAGGGGTTTC | 1.07
84 | GAGGGTATTC | 0.936
85 | GAGGGTCAG | 1
86 | GAGGGTGGCG | 1
87 | GAGGGTGGCT | 0.979
88 | GAGGGTTCGC | 1
89 | GAGGTAACTA | 0.996
90 | GAGGTACCAA | 0.997
91 | GAGGTCAACC | 1.13
92 | GAGGTCACGA | 0.983
93 | GAGGTCTAGA | 0.991
94 | GAGGTCTAGT | 1.01
95 | GAGGTGACAT | 1.03
96 | GAGGTGCAGT | 1.02
97 | GAGGTGTTG | 0.977
98 | GAGGTTCTC | 1.15
99 | GAGTAAACCT | 2.83
100 | GAGTAAATCG | 1.03
101 | GAGTAAGGTT | 0.98
102 | GAGTAATAGA | 0.993
103 | GAGTACACTA | 1.11
104 | GAGTACCGTG | 1.06

Row | Sequence | switch fluorescence ratio
105 | GAGTAGAAGG | 0.991
106 | GAGTAGAATG | 0.985
107 | GAGTAGACGC | 1
108 | GAGTAGACGG | 0.933
109 | GAGTAGTGAA | 2.21
110 | GAGTATGGAC | 0.906
111 | GAGTATTCCG | 1.01
112 | GAGTCAGCAG | 1.19
113 | GAGTCAGGTT | 1.01
114 | GAGTCGCCGA | 0.966
115 | GAGTCGTGTC | 1.01
116 | GAGTGAAACT | 0.988
117 | GAGTGCCGAA | 1.02
118 | GAGTGGCTAG | 0.978
119 | GAGTGTACTC | 0.952
120 | GAGTGTATCG | 1.22
121 | GAGTGTCGGG | 1.05
122 | GAGTTACACT | 1
123 | GAGTTATAGG | 1.02
124 | GAGTTTATTG | 1
125 | GAGTTTCACA | 1.02
126 | GATAAAAGA | 0.971
127 | GATAAATACC | 0.98
128 | GATAACACGG | 1.05
129 | GATAACCGTA | 1.07
130 | GATAAGCGAC | 1.1

Row | Sequence | switch fluorescence ratio
131 | GATACAACAT | 1.02
132 | GATACAATGG | 1.89
133 | GATACACACT | 1.45
134 | GATACACAT | 1.04
135 | GATACAGAGA | 1.05
136 | GATACAGCAT | 1.07
137 | GATACATTAA | 1.07
138 | GATACCCTCA | 1.07
139 | GATACCGAGA | 1.06
140 | GATACGTACC | 1.77
141 | GATACTTAGC | 0.993
142 | GATACTTCCG | 1.19
143 | GATAGACCGA | 1.01
144 | GATAGAGGCT | 0.979
145 | GATAGCATA | 0.964
146 | GATAGCGGCA | 1.03
147 | GATAGCTCCC | 1.17
148 | GATAGGACGT | 0.962
149 | GATAGGCTGT | 1.02
150 | GATAGGGTTC | 1.01
151 | GATAGTTG | 1.04
152 | GATATAAAAG | 1.04
153 | GATATAATCA | 0.991
154 | GATATACAAG | 1
155 | GATATACGAA | 1.02
156 | GATATAGGGC | 1.09

Row | Sequence | switch fluorescence ratio
157 | GATATAGGTG | 1.09
158 | GATATGCCTC | 1.03
159 | GATATGCGAG | 0.975
160 | GATATGCGTA | 1.05
161 | GATATGTCGG | 1.01
162 | GATATGTTCT | 1.03
163 | GATATGTTGC | 0.972
164 | GATATTATGT | 1.01
165 | GATATTCGGC | 1.01
166 | GATATTTCTA | 0.993
167 | GATCAAGGAG | 1
168 | GATCAAGGTG | 1.05
169 | GATCACTCAT | 1.02
170 | GATCAGAGTG | 1.03
171 | GATCATTTAT | 1.02
172 | GATCCCACGC | 1.17
173 | GATCCCCACT | 1.07
174 | GATCCCGGGA | 0.975
175 | GATCCGGCTA | 1.12
176 | GATCCTAAAT | 1.02
177 | GATCGAGCTT | 0.99
178 | GATCGCGTCT | 1.01
179 | GATCGGAGTT | 0.992
180 | GATCGGATGA | 1.27
181 | GATCGGCGTT | 1
182 | GATCGTCTTT | 0.996

Row | Sequence | switch fluorescence ratio
183 | GATCTACCTC | 1.07
184 | GATCTAGGTA | 0.975
185 | GATCTCGTTG | 0.975
186 | GATCTCTAAA | 0.962
187 | GATCTCTAGG | 1.01
188 | GATCTCTTTT | 0.991
189 | GATCTGGGAT | 0.985
190 | GATCTTTTTA | 1.05
191 | GATGACCGCG | 1.05
192 | GATGACTAAG | 1
193 | GATGATCAGT | 1
194 | GATGATCCGG | 1.01
195 | GATGATGGTC | 1.02
196 | GATGCCATTT | 1.04
197 | GATGCCGCT | 0.982
198 | GATGCTGAAG | 0.982
199 | GATGGACAGT | 1.02
200 | GATGGACTGT | 1.03
201 | GATGGAGAG | 0.978
